Laboratory results taken from article PMC4336329 (PLoS ONE, 2015).
Among all 310,000 compounds or so, about 14,000 (4.5%) showed an effect of 50% or more. The effect is printed as a negative number. This is one part of the list.

Molecular target: human ether-à-go-go-related gene (hERG) potassium channel (human, UniProt Q12809)
Assay: primary screen, population patch clamp on CHO cells stably expressing hERG
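Further: peak tail current of the secondary pulse compared with the same well before compound.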

Chain of human ether-à-go-go-related gene (hERG) potassium channel (Q12809 whole entry, looked up): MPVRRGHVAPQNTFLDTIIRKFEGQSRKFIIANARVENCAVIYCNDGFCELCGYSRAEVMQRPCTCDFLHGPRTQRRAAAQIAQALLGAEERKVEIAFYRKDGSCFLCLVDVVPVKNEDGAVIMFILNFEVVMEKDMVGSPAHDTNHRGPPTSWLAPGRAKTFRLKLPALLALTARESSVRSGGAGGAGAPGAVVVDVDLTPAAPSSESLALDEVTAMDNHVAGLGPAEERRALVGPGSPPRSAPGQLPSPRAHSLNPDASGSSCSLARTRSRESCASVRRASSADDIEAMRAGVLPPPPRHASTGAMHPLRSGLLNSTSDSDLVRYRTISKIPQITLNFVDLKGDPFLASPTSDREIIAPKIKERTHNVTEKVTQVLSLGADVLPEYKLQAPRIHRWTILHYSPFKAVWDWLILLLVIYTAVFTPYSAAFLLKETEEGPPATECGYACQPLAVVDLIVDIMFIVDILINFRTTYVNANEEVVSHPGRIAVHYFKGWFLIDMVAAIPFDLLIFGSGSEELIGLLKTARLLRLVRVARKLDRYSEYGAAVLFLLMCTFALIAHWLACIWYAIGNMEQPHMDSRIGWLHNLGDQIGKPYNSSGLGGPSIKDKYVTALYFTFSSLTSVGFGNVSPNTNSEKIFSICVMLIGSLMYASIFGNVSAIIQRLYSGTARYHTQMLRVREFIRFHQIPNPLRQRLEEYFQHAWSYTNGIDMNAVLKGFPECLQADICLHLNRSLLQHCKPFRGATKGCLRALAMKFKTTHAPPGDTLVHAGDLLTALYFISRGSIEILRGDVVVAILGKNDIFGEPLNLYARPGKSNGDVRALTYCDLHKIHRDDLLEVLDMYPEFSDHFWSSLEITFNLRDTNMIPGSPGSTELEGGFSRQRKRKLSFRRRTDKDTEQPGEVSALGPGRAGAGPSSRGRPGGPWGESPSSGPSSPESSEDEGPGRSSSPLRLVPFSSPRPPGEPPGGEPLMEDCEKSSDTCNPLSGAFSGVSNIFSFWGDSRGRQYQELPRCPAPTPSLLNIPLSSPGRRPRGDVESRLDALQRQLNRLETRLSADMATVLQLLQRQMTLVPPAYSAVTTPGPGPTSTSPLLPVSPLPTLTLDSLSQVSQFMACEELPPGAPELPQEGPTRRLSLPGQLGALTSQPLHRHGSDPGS

Compound | hERG current change (%, negative = inhibition) at 10uM [%]
CC(=O)Nc1ccccc1Sc1ccc2c3c(cccc13)C(=O)N(c1ccc(C)cc1)C2=O | 2.01
CC1CCCCN1CCCNC(=O)c1cc(Br)c(Br)[nH]1 (stereo not shown) | -64.9
CO/N=C/C(C#N)=C/c1ccc(OC)cc1 | 20.6
Cc1cc(OCC(=O)N(Cc2ccco2)C2CCS(=O)(=O)C2)cc(C)c1Cl (stereo not shown) | -43.6
CCCCNC(=O)Cn1cnc2sc(C)c(S(=O)(=O)N3CCN(c4ccccc4OC)CC3)c2c1=O | 11.4
O=C(c1ccccc1F)N(Cc1ccc2c(c1)OCO2)Cc1cc2cc3c(cc2n2nnnc12)OCO3 | -13
O=C(Nc1ccccc1C(=O)N1CCNCC1)c1ccco1 | 4.65
Cc1nc(N2CCN(c3ccccn3)CC2)c2c(C)c(C(=O)Nc3c(F)cc(F)cc3Br)sc2n1 | -14.4
Cc1nn(Cc2ccccc2)c2c1C(c1ccco1)C(C#N)=C(N)O2 (stereo not shown) | 8.66
O=C1CCC(C(=O)N2CCOCC2)CN1Cc1cccc(C(F)(F)F)c1 (stereo not shown) | -3.9
CN(Cc1c(C(=O)N2CCc3ccccc3C2)nc2ccc(Cl)cn12)C(C1CC1)C1CC1 | -45.9
COc1ccc(CNC(=O)C2(CC3CC(c4ccccc4)=NO3)CCN(C(=O)Cc3ccc(F)cc3)CC2)cc1 (stereo not shown) | 18.1
CN1CCCN(S(=O)(=O)c2ccccc2)CC1.Cl | -0.989
Cn1cccc1/C=C1\CCc2ccccc2C1=O | 11.8
CC1CN(c2ccccc2)CCN1C(=O)c1cc(COc2c(F)cccc2F)on1 (stereo not shown) | -1.15
COc1ccc(NC(=O)c2ccc(NCC3CCCO3)c([N+](=O)[O-])c2)cc1 (stereo not shown) | -5.12
Cc1cccc(C(=O)N[C@H](C(=O)OCc2cc(=O)n3c(n2)sc2ccccc23)C(C)C)c1 | -21.7
COc1ccccc1NS(=O)(=O)c1cc(NC(=O)c2sccc2C)ccc1N1CCCC1 | 14.9
O=S(=O)(c1ccc2ccccc2c1)n1cccn1 | 14.1
Cc1ccsc1CNn1cnnc1SCc1ccc(Cl)cc1 | 13
O=C(COc1ccc2ccccc2c1)N1CCN(C(=O)c2cccs2)CC1 | -50
COc1cccc(NC(=O)CN(C)CC(=O)NCc2ccco2)c1 | 2.65
CCN1CCCC1CNC(=O)c1ccc(Sc2ccc(F)cc2)c([N+](=O)[O-])c1 (stereo not shown) | -66.5
CC(C)(C)OC(=O)N1CCC[C@H]1c1nnc(SCc2cccc(Cl)c2)o1 | -15.1
COc1ccc(COc2cc(-c3cccc(OC)c3)nc3ccc(NC(=O)c4ccc(OC)cc4)cc23)cc1 | 10.9
CCc1c(C)c2c(C)nn(-c3ccccc3)c2[nH]c1=O | 1.37
CCOc1cc(C(=O)N(C)CC(=O)Nc2cccc3ccccc23)ccc1OC | 5.74
COc1ccccc1S(=O)(=O)CC(O)COc1ccccc1Cl (stereo not shown) | 11.8

Compound | hERG current change (%, negative = inhibition) at 10uM [%]
COC(=O)c1c(NC(=O)c2ccco2)sc(C)c1C | 18.1
Cc1cc(NC(=O)CSc2nc3c(sc4ccccc43)c(=O)n2CCc2ccccc2)n[nH]1 | -19.6
N#Cc1ccc(Oc2ccc(S(=O)(=O)N3CCOCC3)cn2)cc1 | -45.4
Cc1ccc(NC(=O)CCc2nc3sc4c(c3c(=O)[nH]2)CCCC4)c(Br)c1 | 9.62
N#CC1=C(N)Oc2c(ccc3cccnc23)C1c1cccnc1 (stereo not shown) | -13.5
COCCSc1ccccc1C(=O)Nc1ccc(S(=O)(=O)N2CCOCC2)cc1 | 0.228
CCN(CC)C(=O)Cn1ccc(NC(C)=O)nc1=O | 5.18
CCCCn1c(N)c(N(CC(C)C)C(=O)c2ccc(N3C(=O)CCC3=O)cc2)c(=O)[nH]c1=O | 13.9
Cc1cc(C)n(-c2nc(-c3ccc(Cl)cc3)cs2)n1 | 9.46
O=S(=O)(Nc1ccccc1O)c1ccc(-c2ccccc2)cc1 | 60.2
Cc1ccc(NC2=NCC(=O)N2Cc2ccc3c(c2)OCO3)cc1 | -5.93
CCOc1ccc(-n2c(SCC(=O)N3CCC(C(=O)O)CC3)nc3ccccc3c2=O)cc1 | 13.1
CCCn1c(/C=C/c2cc[n+](C)cc2)nc2ccccc21.[I-] | 7.76
CCOc1ccc(NS(=O)(=O)c2ccc(C(=O)NC3CCC(O)CC3)cc2)cc1 (stereo not shown) | 10.3
C/C(=N/N1CCN(c2ccccn2)CC1)c1cccc([N+](=O)[O-])c1 | -11.9
O=C(OCc1ccc(F)cc1Cl)c1ccccn1 | 6
Cc1cccc(C(C)C)c1NC(=O)c1c(-c2ccccc2)noc1C | 18.9
CCOC(=O)c1c(C)nc(C(Cl)(Cl)Cl)nc1N | -4.94
O=c1[nH]c(=S)n(C2CC2)c(O)c1C=NCC1CCCO1 (stereo not shown) | -6.97
CC(C)c1nc2cc(C(=O)N(C)C3CCOCC3)ccc2o1 | -1.17
CC1CCN(C(c2ccc(N(C)C)cc2)c2nnnn2Cc2ccc(F)cc2)CC1 (stereo not shown) | 9.84
c1ccc(N2CCN(c3ccccc3)C2c2cccs2)cc1 | 3.61
CCn1nc(C(=O)N2CCc3ccccc32)c2ccccc2c1=O | -19.7
Cc1ccc(C)c(S(=O)(=O)NCCN2CCOCC2)c1.Cl | 9.41
c1ccc(-n2nnnc2Sc2n[nH]c(-c3ccncc3)n2)cc1 | 0.977
CCCc1nc(S(=O)(=O)Cc2ccc(Cl)cc2Cl)n[nH]1 | 1.54
CC(C)(CO)NC(=O)c1ccc2nc(Cc3cccc(Cl)c3)oc2c1 | -6.2
